Assay in all cases: co-IP; anti-GFP (GFP nanobodies, mock-coupled control beads) IP from native lysates of HeLa Flip-In T-Rex lines expressing MTBP-3×Flag-TEV2-GFP (WT or deletions); endogenous Treslin/TICRR and Cdk8 by immunoblot
In test [1] the target is T1, MTBP mutant lacking amino acids R595 to L634, Flag3-GFP-tagged (human) (UniProt Q96DY7).
T1 sequence: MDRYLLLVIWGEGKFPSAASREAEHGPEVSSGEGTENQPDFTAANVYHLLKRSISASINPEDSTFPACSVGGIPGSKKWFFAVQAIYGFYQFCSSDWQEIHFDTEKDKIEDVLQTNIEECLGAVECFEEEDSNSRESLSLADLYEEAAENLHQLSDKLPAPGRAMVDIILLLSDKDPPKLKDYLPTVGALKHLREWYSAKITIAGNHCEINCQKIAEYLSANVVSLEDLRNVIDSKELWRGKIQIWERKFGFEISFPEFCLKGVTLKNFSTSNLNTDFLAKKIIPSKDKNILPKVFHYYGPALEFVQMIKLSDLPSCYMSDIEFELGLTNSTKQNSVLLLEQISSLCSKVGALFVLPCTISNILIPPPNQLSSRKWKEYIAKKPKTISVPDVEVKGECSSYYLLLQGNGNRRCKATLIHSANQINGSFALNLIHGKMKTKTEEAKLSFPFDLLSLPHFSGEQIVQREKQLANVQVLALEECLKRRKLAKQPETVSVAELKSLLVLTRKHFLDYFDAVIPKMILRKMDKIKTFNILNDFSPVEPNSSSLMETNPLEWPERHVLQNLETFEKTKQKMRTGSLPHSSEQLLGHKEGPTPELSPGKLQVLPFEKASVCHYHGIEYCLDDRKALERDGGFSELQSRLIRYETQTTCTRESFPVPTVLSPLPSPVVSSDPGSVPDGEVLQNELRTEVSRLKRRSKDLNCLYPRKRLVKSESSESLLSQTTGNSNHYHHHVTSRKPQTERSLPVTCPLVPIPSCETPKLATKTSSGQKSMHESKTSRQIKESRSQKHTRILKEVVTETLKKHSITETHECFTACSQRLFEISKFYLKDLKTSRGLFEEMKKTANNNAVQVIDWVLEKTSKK

The chains behind the UniProt entries cited, without tags or fusion partners.
UniProt P49336: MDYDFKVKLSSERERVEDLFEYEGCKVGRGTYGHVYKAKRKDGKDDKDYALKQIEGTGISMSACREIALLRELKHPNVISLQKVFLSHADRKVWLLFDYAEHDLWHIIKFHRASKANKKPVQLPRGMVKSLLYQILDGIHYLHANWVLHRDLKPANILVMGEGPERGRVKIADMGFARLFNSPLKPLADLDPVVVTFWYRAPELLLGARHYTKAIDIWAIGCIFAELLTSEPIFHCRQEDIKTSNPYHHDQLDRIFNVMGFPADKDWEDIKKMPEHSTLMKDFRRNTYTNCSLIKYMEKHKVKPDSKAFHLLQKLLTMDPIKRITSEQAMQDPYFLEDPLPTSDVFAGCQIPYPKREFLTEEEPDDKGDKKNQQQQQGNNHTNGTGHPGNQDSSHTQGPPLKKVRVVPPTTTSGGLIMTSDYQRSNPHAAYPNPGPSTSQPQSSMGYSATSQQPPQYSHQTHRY
UniProt Q7Z2Z1: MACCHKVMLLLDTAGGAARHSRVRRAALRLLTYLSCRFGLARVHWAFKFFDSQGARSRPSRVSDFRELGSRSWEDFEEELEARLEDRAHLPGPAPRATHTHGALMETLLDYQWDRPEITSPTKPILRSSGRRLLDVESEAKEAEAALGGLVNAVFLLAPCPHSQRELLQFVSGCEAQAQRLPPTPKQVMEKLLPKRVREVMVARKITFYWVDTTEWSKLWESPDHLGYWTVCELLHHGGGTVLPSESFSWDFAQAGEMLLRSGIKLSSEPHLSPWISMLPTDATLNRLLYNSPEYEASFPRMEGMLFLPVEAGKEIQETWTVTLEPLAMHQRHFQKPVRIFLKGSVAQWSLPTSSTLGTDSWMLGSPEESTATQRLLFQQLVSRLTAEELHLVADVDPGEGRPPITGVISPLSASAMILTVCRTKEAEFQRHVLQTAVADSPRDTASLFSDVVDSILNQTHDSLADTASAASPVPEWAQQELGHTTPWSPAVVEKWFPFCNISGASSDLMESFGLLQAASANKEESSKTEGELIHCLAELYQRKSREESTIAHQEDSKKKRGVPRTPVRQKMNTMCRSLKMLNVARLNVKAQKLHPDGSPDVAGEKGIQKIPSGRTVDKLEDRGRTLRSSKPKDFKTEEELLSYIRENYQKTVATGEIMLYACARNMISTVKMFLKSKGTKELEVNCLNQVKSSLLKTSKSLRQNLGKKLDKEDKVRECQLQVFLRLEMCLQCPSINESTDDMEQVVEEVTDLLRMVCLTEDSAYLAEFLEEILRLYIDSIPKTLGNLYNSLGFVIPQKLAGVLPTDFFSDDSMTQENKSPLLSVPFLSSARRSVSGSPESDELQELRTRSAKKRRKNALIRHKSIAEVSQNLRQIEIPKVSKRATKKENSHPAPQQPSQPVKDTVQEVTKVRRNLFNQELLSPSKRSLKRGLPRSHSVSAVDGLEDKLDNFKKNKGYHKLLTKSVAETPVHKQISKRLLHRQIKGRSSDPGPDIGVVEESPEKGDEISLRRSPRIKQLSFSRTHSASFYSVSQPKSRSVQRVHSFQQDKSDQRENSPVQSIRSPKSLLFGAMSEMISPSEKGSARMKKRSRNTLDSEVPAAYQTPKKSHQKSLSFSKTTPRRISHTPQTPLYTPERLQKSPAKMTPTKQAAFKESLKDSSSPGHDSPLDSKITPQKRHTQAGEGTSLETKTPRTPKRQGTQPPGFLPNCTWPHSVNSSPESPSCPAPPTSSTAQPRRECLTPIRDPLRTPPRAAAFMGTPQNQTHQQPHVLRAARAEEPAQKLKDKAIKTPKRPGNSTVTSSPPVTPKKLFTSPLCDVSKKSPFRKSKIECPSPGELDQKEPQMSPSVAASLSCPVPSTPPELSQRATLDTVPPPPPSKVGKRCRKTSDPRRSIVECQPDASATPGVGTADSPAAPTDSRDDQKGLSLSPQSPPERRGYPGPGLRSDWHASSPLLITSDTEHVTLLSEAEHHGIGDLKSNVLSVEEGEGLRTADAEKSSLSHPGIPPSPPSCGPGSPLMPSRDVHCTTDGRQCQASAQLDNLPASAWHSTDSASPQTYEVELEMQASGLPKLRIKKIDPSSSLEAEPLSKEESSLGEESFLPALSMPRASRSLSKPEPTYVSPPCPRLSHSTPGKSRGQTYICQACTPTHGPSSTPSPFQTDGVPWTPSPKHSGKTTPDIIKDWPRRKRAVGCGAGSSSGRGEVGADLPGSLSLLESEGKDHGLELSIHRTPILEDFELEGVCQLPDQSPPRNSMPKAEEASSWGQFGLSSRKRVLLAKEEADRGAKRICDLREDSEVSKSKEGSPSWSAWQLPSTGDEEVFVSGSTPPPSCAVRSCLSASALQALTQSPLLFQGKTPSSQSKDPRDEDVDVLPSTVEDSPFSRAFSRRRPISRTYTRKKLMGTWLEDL

The target in test [2] is T2, MTBP-ΔT635–P704, Flag3-GFP-tagged (human) (UniProt Q96DY7).
T2 sequence: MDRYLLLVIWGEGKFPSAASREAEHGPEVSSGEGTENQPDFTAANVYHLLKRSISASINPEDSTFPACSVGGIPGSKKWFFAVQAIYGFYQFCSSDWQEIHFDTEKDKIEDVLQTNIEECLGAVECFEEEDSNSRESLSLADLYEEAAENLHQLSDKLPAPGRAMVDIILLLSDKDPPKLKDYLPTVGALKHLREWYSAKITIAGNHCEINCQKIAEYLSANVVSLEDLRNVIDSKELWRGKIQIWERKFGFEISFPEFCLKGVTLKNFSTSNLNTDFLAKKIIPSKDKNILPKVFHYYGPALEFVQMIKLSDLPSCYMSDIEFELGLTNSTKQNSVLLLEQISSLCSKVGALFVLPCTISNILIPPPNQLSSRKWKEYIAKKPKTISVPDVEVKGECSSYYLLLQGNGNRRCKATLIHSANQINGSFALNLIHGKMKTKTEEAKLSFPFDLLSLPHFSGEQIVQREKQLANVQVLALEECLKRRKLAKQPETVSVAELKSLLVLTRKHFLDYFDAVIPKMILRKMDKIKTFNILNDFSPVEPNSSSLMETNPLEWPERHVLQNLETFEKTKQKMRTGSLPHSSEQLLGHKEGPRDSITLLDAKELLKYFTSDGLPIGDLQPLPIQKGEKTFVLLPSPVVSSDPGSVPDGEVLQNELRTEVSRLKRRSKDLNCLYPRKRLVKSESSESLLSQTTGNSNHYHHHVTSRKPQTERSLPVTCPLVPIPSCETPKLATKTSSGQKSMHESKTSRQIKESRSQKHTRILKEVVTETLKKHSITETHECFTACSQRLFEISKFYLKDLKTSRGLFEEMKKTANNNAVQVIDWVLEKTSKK

The target in test [3] is T3, MTBP-Δ516–769–3×Flag-TEV2-GFP-NLS (mSld7) (human) (UniProt Q96DY7).
T3 sequence: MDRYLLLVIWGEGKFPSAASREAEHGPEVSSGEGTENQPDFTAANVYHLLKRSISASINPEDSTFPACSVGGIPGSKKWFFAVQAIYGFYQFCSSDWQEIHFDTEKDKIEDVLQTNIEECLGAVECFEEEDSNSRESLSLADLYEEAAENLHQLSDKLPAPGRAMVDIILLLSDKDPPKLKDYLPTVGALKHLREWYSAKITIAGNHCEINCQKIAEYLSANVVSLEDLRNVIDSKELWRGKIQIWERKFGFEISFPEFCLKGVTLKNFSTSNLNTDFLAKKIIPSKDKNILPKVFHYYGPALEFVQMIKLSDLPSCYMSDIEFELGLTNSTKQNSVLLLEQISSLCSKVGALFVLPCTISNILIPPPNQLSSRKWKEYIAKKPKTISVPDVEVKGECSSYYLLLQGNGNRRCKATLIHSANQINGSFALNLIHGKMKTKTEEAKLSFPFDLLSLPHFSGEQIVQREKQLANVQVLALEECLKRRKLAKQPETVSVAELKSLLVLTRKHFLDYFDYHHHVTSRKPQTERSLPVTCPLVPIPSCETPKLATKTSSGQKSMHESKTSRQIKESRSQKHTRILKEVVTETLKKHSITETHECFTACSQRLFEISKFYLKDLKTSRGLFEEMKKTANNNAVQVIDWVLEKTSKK

Results are given in words; binding and its absence hold for the method and conditions named. Binding seen in cells or lysates may run through a third protein. Some results given as binding are weak or reduced against the parent protein; the word gives no strength. Where a sequence is shown, tags or fusion partners need not be part of it.

“Cdk8 (cyclin-dependent kinase 8), endogenous (from UniProt P49336 1-464) (enzyme)”: the binding entry in test [1] and in test [2] was “no binding” each time.

With “Treslin/TICRR (TopBP1-interacting replication stimulating protein/TopBP1-interacting checkpoint and replication regulator), endogenous (from UniProt Q7Z2Z1 1-1910)”, in test [3], the binding entry is “binds”.

The values above are taken from article PMC6377148.
